Reference: PubChem BioAssay AID1745847 (National Center for Advancing Translational Sciences (NCATS), 2022)
Hit rate of the full screen: of about 2,100 compounds, about 670 (32%) were called active. This list was built around the results that the source calls inconclusive (neither active nor inactive); the mix of calls is not that of the screen. The call rests on the fitted dose curve; in most records, active means well fitted inhibition curve with a large enough effect; inconclusive means small, poorly fitted or top-dose-only effect; inactive means no such curve, though single readings can be large or run the other way. A potency beside an inconclusive call is a rough fit, not a confirmed value.

Test: CMV-Luciferase Counterscreen for Inhibitors of ATXN expression; further: nearly all actives have a fitted effect of over 55% in size
Conditions: HEK-293 CMV-luciferase reporter, luminescence, 24 h; series mostly up to 57.5 µM; activity change, negative = inhibition: at the top concentration
On the % scale 0 is the no-effect control and ±100 the full control effect; potency means the concentration at half of the fitted maximal effect; tags describe the fitted curve by direction and shape.

Structure (SMILES)	Potency	activity change, negative = inhibition
Cc1[nH]c2ccccc2c1C1=NNC(=Nc2ccc(F)cc2)SC1	inconclusive: 12.6 µM [inhibitor, partial curve, poor fit]	
CCCCNC(=O)C1(C)CCCCN1Cc1ccccc1-c1ccccc1 (configuration not stated)	inconclusive: 17.8 µM [inhibitor, partial curve]	
NC(Cc1ccccc1)c1csc(Nc2nncc3ccccc23)n1 (configuration not stated)	inconclusive: 39.8 µM [inhibitor, single point]	
O=S(=O)(Nc1ccc(O)c2ccccc12)c1ccc(F)cc1	inconclusive: 3.16 µM [inhibitor, single point]	
COc1ccc(C(NC(=O)c2cccnc2)c2cc(Cl)c3cccnc3c2O)cc1OC (configuration not stated)	inconclusive: 1.58 µM [inhibitor, full curve, poor fit]	
COc1ccc(C(=O)N/N=C/c2ccc(N(C)c3ccccc3)cc2)cc1	inconclusive: 3.55 µM [inhibitor, single point]	
Oc1c(C(Nc2ccccn2)c2cccnc2)cc(Cl)c2cccnc12 (configuration not stated)	active: 12.6 µM	
COc1cc(C(=O)NNC(=O)c2ccc3ccccc3n2)cc(OC)c1OC	inconclusive: 10 µM [inhibitor, partial curve]	
COc1cccc(/C=N/NC(=O)c2cc(-c3ccccn3)nc3ccccc23)c1O	active: 2.82 µM	
O=C(NCc1cc(C(F)(F)F)ccc1Cl)c1cccc2c1C(=O)c1ccc(N3CCOCC3)cc1S2(=O)=O	inconclusive: 8.91 µM [inhibitor, single point]	
CNc1nc2c(N)ncnc2n1[C@H]1O[C@@H](CO)[C@H](O)[C@@H]1O		inactive: 119% [at 11.4 µM]
COc1ccc(CCCNC(=O)C2Cc3c(-c4cccc(NC(C)=O)c4)ccnc3O2)cc1 (configuration not stated)	inconclusive: 2 µM [inhibitor, partial curve, poor fit]	
CC1(C)Cc2c(c(N3CCOCC3)nc3sc4c(NN)ncnc4c23)CS1	inconclusive: 7.94 µM [inhibitor, full curve, poor fit]	
COc1ccc(C(NC(C)=O)c2cc(Cl)c3cccnc3c2O)cc1OC (configuration not stated)	inconclusive: 2.82 µM [inhibitor, full curve, poor fit]	
COc1ccc(CC(=O)Nc2nc(-c3ccc(F)c(F)c3)cs2)cc1OC	active: 6.31 µM	
CCOC(=O)c1cnc(-n2nc(C)cc2C)nc1NNc1cc(C)nc(-c2ccccc2)n1	inconclusive: 2.82 µM [inhibitor, full curve, poor fit]	
FC(F)(F)c1cc(-c2ccccn2)nc2cc(-c3ccccc3)nn12		inactive: -0.328%
COc1cccc(C(=O)Nc2nc(-c3ccc(S(=O)(=O)N4CCOCC4)cc3)cs2)c1	active: 2.82 µM	
COc1ccc2c(c1)[nH]c1c(=O)n(/N=C/C3C(C)C=C(C)CC3C)c(=O)[nH]c12 (configuration not stated)	inconclusive: 31.6 µM [inhibitor, single point]	
CC(=O)c1cccc(NC(=O)c2cccc3c(-c4cccc(C(N)=O)c4)coc23)c1	inconclusive: 31.6 µM [inhibitor, single point]	
Cn1cc(/C=C/c2cc[n+](C)cc2)c2cc(F)ccc21	active: 11.2 µM	

Structure (SMILES)	Potency	activity change, negative = inhibition
CCCCCCc1cc2cc(C(=O)Nc3ccccc3)c(=O)oc2cc1O	inconclusive: 0.794 µM [inhibitor, full curve, poor fit]	
COc1ccc(CCNc2ncnc3c2[nH]c2cc(OC)c(OC)cc23)cc1OC	inconclusive: 17.8 µM [inhibitor, partial curve, poor fit]	
NNC(=O)c1nc(-c2ccccc2)cc(-c2ccccc2)n1		inactive: 23.1%
COCCCn1c(-c2ccc(S(=O)(=O)N3CCOCC3)cc2)csc1=Nc1ccccc1	active: 3.98 µM	
CC(C)[C@@H]1CC[C@@H](C)C[C@H]1OC(=O)C[n+]1cc(-c2ccc(Cl)cc2)n2c1CCCCC2	active: 14.1 µM	
Cn1c(N)c(C(=O)Nc2ccc(-c3ccccc3)cc2)sc1=S	inconclusive: 39.8 µM [inhibitor, single point]	
O=C(N/N=C/c1ccccc1O)C1CCCC1	inconclusive: 20 µM [inhibitor, single point]	
Cc1cc(/C=N/n2c(COc3ccccc3)nc3ccccc3c2=O)c(O)c([N+](=O)[O-])c1	inconclusive: 10 µM [inhibitor, partial curve]	
Cc1ccc(/C=C2/SC(=S)N(CCCC(=O)Nc3cc([N+](=O)[O-])ccc3O)C2=O)cc1	active: 28.2 µM	
NC(COCc1ccccc1)c1csc(Nc2ccc(C(F)(F)F)cn2)n1 (configuration not stated)	inconclusive: 20 µM [inhibitor, partial curve, poor fit]	
O=C(CSc1n[nH]c(-c2ccccn2)n1)Nc1cccc(Cl)c1	inconclusive: 5.62 µM [inhibitor, full curve, poor fit]	
CC1=NN(c2nc3ccccc3[nH]2)C(=O)C1Cc1ccccc1 (configuration not stated)	inconclusive: 1.12 µM [inhibitor, full curve]	
O=C(Nc1ccc(NC(=O)c2cccs2)cc1)c1ccc2c(c1)OCO2		inactive: -7.86% [at 11.4 µM]
CCOC(=O)N(C)c1c(CC)nc2c(OCc3ccccc3C)cccn12	active: 20 µM	
COc1ccc(CCNC(=O)c2cc(-c3cc(C)cc(C)c3O)n[nH]2)cc1OC	active: 20 µM	
Cc1ccc(C(=O)N(C)CC(=O)Nc2ccc(Cl)c(C(F)(F)F)c2)cc1S(=O)(=O)N1CCCCC1	active: 25.1 µM	
CCOc1ccc(Nc2c3ccccc3nc3ccccc23)cc1	inconclusive: 10 µM [inhibitor, partial curve, poor fit]	
Cc1cccc(N2CCN(S(=O)(=O)c3ccc4c(c3)C(C)(C)C(=O)N4C)CC2)c1C	inconclusive: 20 µM [inhibitor, single point]	
CCCCC(=O)NC(c1ccc(Cl)cc1Cl)c1ccc2cccnc2c1O (configuration not stated)	active: 0.794 µM	
CCOc1cc([C@@H]2C[C@H]3CN(c4ccccc4)C(=O)[C@]34CCCN24)ccc1OC		inactive: 4.3%
Cc1c(C(=O)NCc2ccc(F)cc2)sc(=O)n1Cc1ccc(Cl)c(Cl)c1	inconclusive: 25.1 µM [inhibitor, single point]	
